# Measured values taken from PubChem BioAssay AID2147 (National Center for Advancing Translational Sciences (NCATS), 2009).
# Screen size: about 230,000 compounds; about 3,600 (1.6%) were called active. The inconclusive results got no clear call from the source; some entries with a clear call stand among them for comparison. The call rests on the fitted dose curve; in most records, active means well fitted inhibition curve with a large enough effect (not every such curve was filed as active); inconclusive means small, poorly fitted or top-dose-only effect, or another doubt; inactive means no such curve, though single readings can be large or run the other way. Potencies beside an inconclusive call are fits to weak or partial responses and may not hold up.
# Biological target: Lysine-specific demethylase 4E (Homo sapiens) (UniProt B2RXH2)
# Chain of UniProt B2RXH2 (B2RXH2 whole entry, looked up, the tested form may be a part): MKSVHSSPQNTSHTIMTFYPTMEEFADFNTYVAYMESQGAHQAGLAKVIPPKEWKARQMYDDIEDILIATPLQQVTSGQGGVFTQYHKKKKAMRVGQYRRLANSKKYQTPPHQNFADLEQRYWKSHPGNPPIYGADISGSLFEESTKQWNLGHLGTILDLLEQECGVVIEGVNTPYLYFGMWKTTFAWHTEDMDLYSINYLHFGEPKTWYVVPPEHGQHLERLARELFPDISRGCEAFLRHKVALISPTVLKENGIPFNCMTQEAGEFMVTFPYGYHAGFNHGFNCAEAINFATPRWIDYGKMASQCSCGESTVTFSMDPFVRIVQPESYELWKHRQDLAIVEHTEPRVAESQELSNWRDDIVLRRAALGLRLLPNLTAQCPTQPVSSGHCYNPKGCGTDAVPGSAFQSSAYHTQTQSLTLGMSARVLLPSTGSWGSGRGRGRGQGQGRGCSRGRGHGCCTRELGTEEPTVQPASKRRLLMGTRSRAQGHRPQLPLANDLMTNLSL
# Assay: qHTS Assay for Inhibitors of Human Jumonji Domain Containing 2E (JMJD2E)
# Conditions: JMJD2E catalytic domain, FDH-coupled NADH fluorescence (FDH is formaldehyde dehydrogenase); series mostly up to 57.1 µM; activity change, negative = inhibition: at the top concentration
# Further: nearly all actives have a fitted effect of over 50% in size.
# Potency means the concentration at half of the fitted maximal effect; tags describe the fitted curve by direction and shape.
# 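Wherever activity change, negative = inhibition is given: 0% = wells with enzyme and -100% = buffer wells without enzyme.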
SMILES,Potency,"activity change, negative = inhibition"
CC1CCCN(CCCOc2ccc([N+](=O)[O-])cc2)C1 (centres undefined),"inconclusive: 35.5 µM [inhibitor, single point]",–
Cc1cc(OCCCCNC(C)C)cc(C(C)C)c1,"inconclusive: 8.91 µM [inhibitor, partial curve]",–
COC(=O)COc1ccc(-c2ccccc2)cc1C=O,"inconclusive: 35.5 µM [inhibitor, partial curve]",–
Cc1ccc(NC(=O)c2ccc(NCCN)c([N+](=O)[O-])c2)cc1Cl,–,inactive: 6.88%
CCN1CC=C2C(C#N)=C(N)C(C#N)(C#N)[C@H](c3cccc(OC)c3OC)[C@H]2C1,"inconclusive: 31.6 µM [inhibitor, partial curve]",–
O=C(COc1ccccc1)Nc1ccc2[nH]c(=O)[nH]c2c1,"inconclusive: 39.8 µM [inhibitor, single point]",–
CCOC(=O)c1cnc2c(C)c(-c3ccccc3)[nH]n2c1=O,"inconclusive: 12.6 µM [inhibitor, partial curve]",–
CC(C)CCn1c(SCC#N)nc2c(sc3ccccc32)c1=O,"inconclusive: 39.8 µM [inhibitor, single point]",–
Cc1cccc(NC(=O)c2nc[nH]c2C(=O)N[C@@H](CCCCNC(=O)OC(C)(C)C)C(=O)OC(C)(C)C)c1,"inconclusive: 25.1 µM [inhibitor, single point]",–
O=C1CSC(c2ccccc2F)N1 (centres undefined),–,inactive: 6.78%
CC(=O)NC(c1ccc(C)cc1)c1cc([N+](=O)[O-])c2cccnc2c1O (centres undefined),"inconclusive: 35.5 µM [inhibitor, single point]",–
Nc1c(C(O)(C(F)(F)F)C(F)(F)F)ccc2ccccc12,"inconclusive: 28.2 µM [inhibitor, partial curve]",–
C=CCn1c(SCc2csc(C)n2)nc2sc3c(c2c1=O)CCCCC3,–,inactive: -11%
CCCN1C2=NCCN2c2ccccc21,–,inactive: -1.54%
COc1cc(OC)c(NC(=O)c2ccco2)cc1Cl,"inconclusive: 39.8 µM [inhibitor, single point]",–
c1ccc(-c2[nH]ncc2-c2nc3ccccc3[nH]2)cc1,"inconclusive: 28.2 µM [inhibitor, partial curve]",–
Cc1ccc(-n2c(=O)[nH]c3c(C(N)=O)nc(-c4ccc(C)o4)nc32)cc1,"inconclusive: 25.1 µM [inhibitor, single point]",–
NNC(=O)c1ccc(-c2cccc([N+](=O)[O-])c2)o1,–,inactive: 31.2%
C=CCOC(=O)C(C#N)c1nc2ccccc2nc1N1CCN(Cc2ccccc2)CC1 (centres undefined),"inconclusive: 25.1 µM [inhibitor, partial curve]",–
Cc1ccc(N2CCN(C(=O)c3ccccc3NC(=O)c3ccccc3C(=O)O)CC2)cc1,"inconclusive: 39.8 µM [inhibitor, single point]",–
Cc1ccc2oc(-c3cccc(NC(=O)c4ccc(Br)o4)c3C)nc2c1,–,inactive: 6.49%
O=C(N/C(=C\c1cn(-c2ccccc2)nc1-c1ccc(Cl)cc1)C(=O)N1CCOCC1)c1ccccc1,–,inactive: 1.79%
Cc1nc(-c2ccccc2)sc1-c1ccnn1C,"inconclusive: 28.2 µM [inhibitor, partial curve]",–
COc1ccc2cnnc(SCC(=O)Nc3ccc(C(=O)O)cc3)c2c1OC,"inconclusive: 39.8 µM [inhibitor, single point]",–
Cc1cccnc1Nc1nc(-c2ccc(O)cc2O)cs1,–,inactive: 4.18%

SMILES,Potency,"activity change, negative = inhibition"
Cc1cc(=O)oc2c1ccc1oc(/C(=N/O)c3ccccc3)c(C)c12,–,inactive: -8.25%
O=C(N/N=C/c1ccc(F)c(F)c1)c1cc2c(s1)-c1ccccc1CC2,"inconclusive: 10 µM [inhibitor, partial curve]",–
Cc1cc(N2CCN(C(c3ccccc3)c3ccccc3)CC2)n2ncnc2n1,–,inactive: -7.25%
O=C(OCc1cc2ccccc2[nH]c1=O)c1ccccn1,"inconclusive: 39.8 µM [inhibitor, single point]",–
CCNC(=S)N1CCNC(=O)C1CC(=O)OC (centres undefined),–,inactive: -9.78%
Cc1ccc(C)c(C2NC(=O)c3ccccc3N2)c1 (centres undefined),"inconclusive: 28.2 µM [inhibitor, partial curve]",–
COc1ccc(C(=O)n2nc(-c3ccccc3)nc2N)cc1OC,"inconclusive: 39.8 µM [inhibitor, single point]",–
Cc1[nH]n(-c2ccccc2)c(=O)c1N=Nc1cccc(S(=O)(=O)N2CCOCC2)c1,–,inactive: 6.93%
CN1CCN(S(=O)(=O)c2ccc3c4c(cccc24)C(=O)N3)CC1,"inconclusive: 31.6 µM [inhibitor, partial curve]",–
CC(=O)N1CCC(=NNS(=O)(=O)c2cccc([N+](=O)[O-])c2)CC1,–,inactive: 2.87%
Cc1ccccc1N(CC(=O)Nc1ccccc1C(=O)NCc1ccco1)S(=O)(=O)c1ccccc1,"inconclusive: 35.5 µM [inhibitor, single point]",–
FC(F)Oc1ccc(NC(=S)Nn2cnnc2)cc1,–,inactive: 2.55%
COc1ccc(-c2cc3nc4n(c(=O)c3s2)CCC4)cc1,"inconclusive: 3.16 µM [inhibitor, full curve]",–
NC(=O)C1CCN(c2ccc([N+](=O)[O-])cc2Cl)CC1,–,inactive: -2.69%
CSc1ccc(CN(C)C(C)C(=O)NCc2ccccc2)cc1 (centres undefined),–,inactive: 11.8%
CC(C)CCNC(=O)Cn1c(=O)oc2cc(S(=O)(=O)N3CCc4ccccc43)ccc21,–,inactive: 7.81%
COC(=O)C1=CN(C2CC2)C=C(C(=O)OC)C1c1ccc(C(F)(F)F)cc1,"inconclusive: 31.6 µM [inhibitor, partial curve]",–
CN1CCc2c(cc(O)c(O)c2Cl)C(c2cccc(Cl)c2)C1 (centres undefined),active: 14.1 µM,–
N#C/C(=C\c1cccc([N+](=O)[O-])c1)c1nnc2n1CCCCC2,"inconclusive: 31.6 µM [inhibitor, single point]",–
CC(=O)c1ccc(NS(=O)(=O)c2ccc(N/C=C/C(=O)c3ccc(F)cc3)cc2)cc1,"inconclusive: 28.2 µM [inhibitor, partial curve]",–
COc1ccc(C2Nc3ccccc3C(=O)N2c2ccccc2)cc1Cn1cc([N+](=O)[O-])cn1 (centres undefined),"inconclusive: 28.2 µM [inhibitor, single point]",–
c1coc(-c2ccnc3nc(-n4cccc4)nn23)c1,"inconclusive: 35.5 µM [inhibitor, single point]",–
CC1(C)Cc2cccc(OCC(=O)N3CCN(S(=O)(=O)c4ccccc4F)CC3)c2O1,–,inactive: 7.4%
Cc1ccc(Cc2c(C)c(C#N)c3[nH]c4ccccc4n3c2=O)cc1,"inconclusive: 2 µM [inhibitor, partial curve]",–
CC(c1ccccc1)C1OCC(C[N+]2(C)CCCCC2)O1 (centres undefined),–,inactive: -5.59%

SMILES,Potency,"activity change, negative = inhibition"
C=CCn1cnc2scc(-c3ccc(C)cc3)c2c1=O,–,inactive: 3.41%
CC(C)CN1CCC(CNC(=O)CCc2nnc(Cc3c[nH]c4ccccc34)o2)CC1,–,inactive: 12.3%
O=c1ccc2c(o1)/C(=C/C=C(Cl)Cl)CCC2,"inconclusive: 28.2 µM [inhibitor, partial curve]",–
Cn1c(=O)[nH]c(=O)c2c1nc(Br)n2CCC(=O)c1ccccc1,–,inactive: 2.71%
O=C(N/N=C/c1ccccn1)c1cc(-c2ccc(Br)cc2)nc2ccccc12,"inconclusive: 35.5 µM [inhibitor, single point]",–
O=C(Nc1ccc(-c2csc(Nc3cccc(C(F)(F)F)c3)n2)cc1)c1ccccc1,"inconclusive: 39.8 µM [inhibitor, single point]",–
O=c1c2ccccc2nc2ccc(NCc3ccco3)nn12,"inconclusive: 25.1 µM [inhibitor, partial curve]",–
Cc1oc(C(C)(C)C)cc1C(=O)N1CCN(C(c2ccccc2)c2ccccc2)CC1,–,inactive: -3.21%
NC1=NC(=O)/C(=C\c2ccc(O)c([N+](=O)[O-])c2)S1,–,inactive: 9.14%
Cn1c(-c2ccc(CN3CCCCC3)o2)nc2ccccc21,"inconclusive: 28.2 µM [inhibitor, partial curve]",–
CNc1ccc(Br)cc(C(=O)/C=C/c2ccc3c(c2)OCO3)c1=O,"inconclusive: 25.1 µM [inhibitor, single point]",–
Cc1ccc(N2CC(C(=O)Nc3ccc(N(C)C)cc3)CC2=O)cc1C (centres undefined),"inconclusive: 25.1 µM [inhibitor, single point]",–
N#Cc1c(-c2ccc(F)cc2)noc1N,–,inactive: 0.347%
O=C(NC(=S)Nc1ccccc1[N+](=O)[O-])c1ccccc1,–,inactive: -0.0111%
Cc1nnc2sc(-c3cccc4ccccc34)nn12,"inconclusive: 25.1 µM [inhibitor, partial curve]",–
O=C(NCCc1ccccc1)/C(=C/c1ccco1)c1ccccc1,"inconclusive: 39.8 µM [inhibitor, single point]",–
Cc1ccc(-n2c(O)c(C=Nc3ccccc3-c3n[nH]c(=S)[nH]c3=O)c3ccccc3c2=O)c(C)c1,"inconclusive: 35.5 µM [inhibitor, partial curve]",–
O=[N+]([O-])c1cc(-c2ccc(C(=S)N3CCOCC3)o2)ccc1Cl,–,inactive: 3.38%
CCc1cc2c(=O)c(-c3nc4ccccc4[nH]3)coc2c(CN2CCCCC2)c1O,"inconclusive: 7.08 µM [inhibitor, full curve, poor fit]",–
O=C(NN1CCCCC1)c1ccc(COc2ccc(Cl)cc2)cc1,–,inactive: 1.12%
CCOC(=O)c1oc2nc(C)c3c(c2c1N)CC(C)(C)OC3,"inconclusive: 3.55 µM [inhibitor, full curve]",–
CCn1cc(C(=O)Nc2ccccc2C(=O)OC)c(=O)c2ccc(C)nc21,"inconclusive: 35.5 µM [inhibitor, partial curve]",–
CC1(C)CCCN(C(=O)c2coc(=O)c(Br)c2)C1,"inconclusive: 25.1 µM [inhibitor, partial curve]",–
O=C(O)c1cc([N+](=O)[O-])c(NCCC2=CCCCC2)c([N+](=O)[O-])c1,–,inactive: 10.9%
